Where two headings read alike, the source gives them in different places.
Assays:
[1] = for A540 60 min post-treatment: n = 3
[2] = for A540 10 min post-treatment: starch
[3] = A540 30 min post-treatment, 37° C., citrate buffer pH 4.9 (Table 55)
[4] = Table 54 Treatments A-D, 10 min post-treatment
[5] = Table 54 Treatments A-D, Treatment A = α-amylase from Bacillus licheniformis (SEQ ID NO: 735), 33 U/mL alone
[6] = Table 54 Treatments A-D, enzymes 33 U/mL, L-Cysteine 0.013 mg/mL, 1× PBS, pH 6.9
[7] = Table 54 Treatments E-G, with cell supernatant from Bacillus subtilis 168

Molecule | A540 60 min post-treatment [1] | Blank subtracted A540 [2, 4] | Change relative to Treatment A [2, 5] [×] | A540 10 min post-treatment [2, 6] | other results
SEQ ID NO: 735: starch-degrading α-amylase from Bacillus licheniformis (protein, listed as Bacillus licheniformis) MKQQKRLYARLLPLLFALIFLLPHSATAAANLNGTLMQYFEWYMPNDGQHWKRLQNDSAYLAEHGITAVWIPPAYKGTSQDDVGYGAYDLYDLGEFHQKGTVRTKYGTKGELQSAINSLHSRGINVYGDVVINHKGGADATEDVTAVEVDPADRNRVTSGEQRIKAWTHFQFPGRGSTYSDFKWHWYHFDGTDWDESRKLNRIYKFQGKAWDWEVSNENGNYDYLMYADIDYDHPDVTAEIKRWGTWYANELQLDGFRLDAVKHIKFSFLRDWVNHVREKTGKEMFTVAEYWQNDLGALENYLNKTNFNHSVFDVPLHYQFHAASTQGGGYDMRKLLNGTVVSKHPVKAVTFVDNHDTQPGQSLESTVQTWFKPLAYAFILTREAGYPQIFYGDMYGTKGASQREIPALKHKIEPILKARIQYAYGAQHDYFDHHDIVGWTREGDSSVANSGLAALITDGPGGTKRMYVGRQNAGETWHDITGNRSDSVVINAEGWGEFHVNGGSVSIYVQR |  |  |  |  | glucanase response compared with β-1,3-D-glucanase alone (Treatment A) ([1]; pH 4.9): did not show additional glucanase activity
α-amylase from Bacillus licheniformis (SEQ ID NO: 735) (protein, listed as Bacillus licheniformis) MKQQKRLYARLLPLLFALIFLLPHSATAAANLNGTLMQYFEWYMPNDGQHWKRLQNDSAYLAEHGITAVWIPPAYKGTSQDDVGYGAYDLYDLGEFHQKGTVRTKYGTKGELQSAINSLHSRGINVYGDVVINHKGGADATEDVTAVEVDPADRNRVTSGEQRIKAWTHFQFPGRGSTYSDFKWHWYHFDGTDWDESRKLNRIYKFQGKAWDWEVSNENGNYDYLMYADIDYDHPDVTAEIKRWGTWYANELQLDGFRLDAVKHIKFSFLRDWVNHVREKTGKEMFTVAEYWQNDLGALENYLNKTNFNHSVFDVPLHYQFHAASTQGGGYDMRKLLNGTVVSKHPVKAVTFVDNHDTQPGQSLESTVQTWFKPLAYAFILTREAGYPQIFYGDMYGTKGASQREIPALKHKIEPILKARIQYAYGAQHDYFDHHDIVGWTREGDSSVANSGLAALITDGPGGTKRMYVGRQNAGETWHDITGNRSDSVVINAEGWGEFHVNGGSVSIYVQR | 0.383 | 0.406 | 1.0 | 0.590 | 
β-1,3-D-glucanase (QLK1) from Kitasatospora phosalacinea strain SYBCQL (SEQ ID NO: 773) (protein, listed as Kitasatospora phosalacinea) ATTPLAAAPVAAGNWGDDFDGPAGAAVDPAKWTLETGGSGNGNHELQYYTAGAANAALDGQGHLVITAKRNTDPGLSCWYGTCQYTSARLNTSRTFTQAYGHFESRIKIPRGQGIWPAFWMLGNDLGTAGWPNSGEIDVMENIGREPGTVHGTIHGPGYSGAGGIGAPYSLPAGQSFADAFHTFAVDWSPTAITWSVDGTAYQTRTPADLGGNRWVFDHPFFVILNLAVGGDWPGSPDGSSTYPQTMTVDYVHTTTWGGSTGGSYTGQITGPGGMCMDVAGASSADSTPIQLHNCTGNAAQQWTVGADGTVRALGKCLDVAAASHNDGAAIQLYTCNGTSAQQWTHRSGNDLLNPGSGKCLDSPNGSSADGTHLQLWTCNGTGAQKWTLG |  |  |  |  | Blank subtracted A540 ([1]; β-1,3-glucan from Euglena gracilis, 30 min post-treatment): 0.307
β-1,3-D-glucanase from Hordeum vulgare (SEQ ID NO: 731) (protein, Hordeum vulgare) GVCYGVIGNNLPSRSDVVQLYRSKGINGMRIYFADGQALSALRNSGIGLILDIGNDQLANIAASTSNAASWVQNNVRPYYPAVNIKYIAAGNEVQGGATQSILPAMRNLNAALSAAGLGAIKVSTSIRFDEVANSFPPSAGVFKNAYMTDVARLLASTGAPLLANVYPYFAYRDNPGSISLNYATFQPGTTVRDQNNGLTYTSLFDAMVDAVYAALEKAGAPAVKVVVSESGWPSAGGFAASAGNARTYNQGLINHVGGGTPKKREALETYIFAMFNENQKTGDATERSFGLFNPDKSPAYNIQF | 0.522 | 0.030 | 0.07 | 0.214 | 
SEQ ID NO: 776: β-1,3-D-glucanase (protein, Paenibacillus sp IAM1165) APNWNLVWSDEFNGTSLNRANWTPEIGTGSGGWGNNELQYYTDRAQNVQVTGGNLVITAQKESYGGMNYTSARIKTQDLKSFTYGKVEARIKLPSGQGLWPAFWMLGSNISSVGWPKSGEIDIMERVNNNPYVNGTVHWDAGGHADFGRVSGNLDFSQFHVYSIEWDSKYIRWFVDGQQFNEFYIENGTGNTEEFQRPFFILLNLAVGGNWPGSPNNSTPFPSQMLVDYVRVYQDTGASNVISDGIYTIASKASGKVMDVVDVSTARGAKIQQWTNYVANNQRFRVESTGDGYYKLTAVHSGKVLDVPSSSTSTGVQLQQWDDNGSNAQRWKIVDVGGGYYKLVSKVSGLAVDVASASTADGAVVQQWTDNGTDAQKWLFTKIN |  |  |  |  | activity on CM-pachyman from Poria cocos [3]: have activity
α-amylase from Bacillus subtilis 168 (SEQ ID NO: 734) (protein, listed as Bacillus subtilis) ETANKSNELTAPSIKSGTILHAWNWSFNTLKHNMKDIHDAGYTAIQTSPINQVKEGNQGDKSMSNWYWLYQPTSYQIGNRYLGTEQEFKEMCAAAEEYGIKVIVDAVINHTTSDYAAISNEVKSIPNWTHGNTQIKNWSDRWDVTQNSLLGLYDWNTQNTQVQSYLKRFLDRALNDGADGFRFDAAKHIELPDDGSYGSQFWPNITNTSAEFQYGEILQDSASRDAAYANYMDVTASNYGHSIRSALKNRNLGVSNISHYASDVSADKLVTWVESHDTYANDDEESTWMSDDDIRLGWAVIASRSGSTPLFFSRPEGGGNGVRFPGKSQIGDRGSALFEDQAITAVNRFHNVMAGQPEELSNPNGNNQIFMNQRGSHGVVLANAGSSSVSINTATKLPDGRYDNKAGAGSFQVNDGKLTGTINARSVAVLYPDDIAKAPHVFLENYKTGVTHSFNDQLTITLRADANTTKAVYQINNGPETAFKDGDQFTIGKGDPFGKTYTIMLKGTNSDGVTRTEKYSFVKRDPASAKTIGYQNPNHWSQVNAYIYKHDGSRVIELTGSWPGKPMTKNADGIYTLTLPADTDTTNAKVIFNNGSAQVPGQNQPGFDYVLNGLYNDSGLSGSLPH |  |  |  |  | A540 10 min post-treatment ([2]; Table 54 Treatments E-G, amylase 60 U/mL, 2-DDG 6.94 mg/mL, with cell supernatant from Bacillus subtilis 168): 0.374; Blank subtracted A540 [2, 7]: 0.190; Change relative to Treatment A [2, 7]: 1.0×

— US20250236878A1 (priority 2019, published 2025)
